# According to PubChem BioAssay AID1745853 (National Center for Advancing Translational Sciences (NCATS), 2022):
# Where “and” joins values, the source holds several entries; their conditions need not be identical. Identical values can stand only once. This is one part of the list. The main result of the screen is listed elsewhere. These columns were measured beside it and carry no call.
# Key:
# Assay in all cases: Primary Screen for Target Class Profiling of Small Molecule Inhibitors of Methyltransferases
# [1] = target: Glycine N-methyltransferase (Homo sapiens) (UniProt Q14749); details: purified enzyme, MTase-Glo SAH luminescence; measured here: GNMT inhibition; at 40 µM; stronger effect = lower value
# Method in brief: (§1)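 Each enzyme was assayed with SAM and its substrate. SAH formation detected by MTase-Glo luminescence; single-point 40 uM screen[…].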
# [2] = target: Guanidinoacetate N-methyltransferase (Homo sapiens) (UniProt Q14353); details: purified enzyme, MTase-Glo SAH luminescence; measured here: GAMT inhibition; at 40 µM; stronger effect = lower value
# Method in brief: as §1
# [3] = target: Histamine N-methyltransferase (Homo sapiens) (UniProt P50135); details: purified enzyme, MTase-Glo SAH luminescence; measured here: HNMT inhibition; at 40 µM; stronger effect = lower value
# Method in brief: as §1
# [4] = target: Nicotinamide N-methyltransferase (Homo sapiens) (UniProt P40261); details: purified enzyme, MTase-Glo SAH luminescence; measured here: NNMT inhibition; at 40 µM; stronger effect = lower value
# Method in brief: as §1
# [5] = target: Phenylethanolamine N-methyltransferase (Homo sapiens) (UniProt P11086); details: purified enzyme, MTase-Glo SAH luminescence; measured here: PNMT inhibition; at 40 µM; stronger effect = lower value
# Method in brief: as §1
# On the % scale 0 is the no-effect control and ±100 the full control effect.
SMILES,"activity change, negative = inhibition [1]","activity change, negative = inhibition [2]","activity change, negative = inhibition [3]","activity change, negative = inhibition [4]","activity change, negative = inhibition [5]"
O=C(Cn1c(=O)oc2cc(S(=O)(=O)N3CCCC3)ccc21)Nc1ccc(F)cc1F,2.27%,0%,3.56%,-0.186%,-9.49%
CCCn1c(=O)c2cc(Cl)ccc2n2c(SCC(=O)NC(C)CC)nnc12 (stereo not drawn),-7.95%,-13.9%,5.51%,-8.4%,-7.64%
Cc1cc2nc3n(c(=O)c2n1CC(=O)NC1CCc2ccccc21)CCCCC3 (stereo not drawn),-7.09%,-4.52%,-0.765%,-11.5%,-19%
CC(C)CN(Cc1cccnc1)C1CN(C(=O)CCc2nc3ccccc3s2)C1,-7.26%,-3.55%,-3.03%,-12.1%,9.2%
CC(C)NC(=O)Cn1nc2n(Cc3ccccc3)c(=O)c3ccc(C(=O)NC4CCCC4)cc3n2c1=O,0.062%,0.118%,1.24%,-0.914%,-3.27%
CC1(C)CCCC2(C)C1C(O)C=C(CO)C2(O)CO (stereo not drawn),0%,7.66%,9.41%,-5.94%,3.59%
C=Cc1ccc(Cn2nc3n(CCCOC(C)C)c(=O)c4ccccc4n3c2=O)cc1,2.23%,0%,7.85%,-2.69%,4.58%
CCC(C)NC(=O)c1ccc2c(=O)n(C)c3nnc(SCC(=O)Nc4cccc(Cl)c4)n3c2c1 (stereo not drawn),-0.128%,1.31%,-3.28%,-8.08%,-0.163%
O=C(NCCc1c[nH]c2ccc(O)cc12)c1ccc2ccccc2c1O,–,7.97%,–,-3.5%,-1.34%
CCOC(=O)C1=C(N)Oc2ccc(Br)cc2C1C(C#N)C(=O)OCC (stereo not drawn),-2.11% and -0.551%,-0.152% and 4.79%,7.6% and 2.7%,-14% and -14.9%,0.122% and -3.15%
CC1(C(=O)NC2CCCC2)Cn2c(ccc2-c2ccccc2)C(=O)N1CCC1=CCCCC1 (stereo not drawn),3.81%,0%,3.47%,0.849%,2.32%
CCCn1c(=O)c2ccc(C(=O)NC3CCCC3)cc2n2c(=O)n(CC(=O)NCc3ccc(C)cc3)nc12,4.15%,3.44%,5.29%,9.44%,8.33%
COc1ccc(CN2C(=O)c3cc4ccccc4n3CC2(C)C(=O)NC2CCCC2)cc1 (stereo not drawn),-4.84%,1.33%,-1.89%,-12.5%,1.12%
CCN1c2cc(C(=O)NCCc3ccccc3)ccc2C(=O)N2CCCCC21 (stereo not drawn),-17.9%,-0.323%,-16%,-9.43%,-5.29%
O=C(N[C@H]1CCN2C(=O)N(c3cccc(C(F)(F)F)c3)C(=O)[C@@H]2C1)c1ccncc1,-12.5%,-7.29%,-3.99%,-10.1%,-6.12%
CN(C)CCO[C@H]1C[C@@H](O)C12CCN(C(=O)Cc1ccc3ccccc3c1)CC2,-5.55%,-10.1%,-15.3%,-10.4%,-11.5%
CC(C)N(C(=O)Cn1c(=O)oc2cc(S(=O)(=O)N3CCCCC3)ccc21)C1CCCCC1,2.51%,3.89%,3.69%,-3.13%,-2.47%
NC1(Cc2ccc(Cl)cc2)CCN(c2ncnc3[nH]ccc23)CC1,1.73%,6.41%,-74.1%,-31.2%,-23.3%
COC(=O)CNC(=O)c1nc(-c2ccc(Cl)cc2)c2ccccn12,-10.1%,-10.3%,-8.61%,-15.7%,-14.4%
CCn1nc(C(=O)N2C[C@@H](CN3CCN(C)CC3)[C@@H](CO)C2)cc1C,1.54%,2.81%,1.49%,-5.05%,15.1%
Cc1ccc(CCNC(=O)C2CCN(c3cc(C(F)(F)F)ncn3)CC2)cc1,-5.72%,-4.6%,-0.949%,-8.07%,-1.41%

SMILES,"activity change, negative = inhibition [1]","activity change, negative = inhibition [2]","activity change, negative = inhibition [3]","activity change, negative = inhibition [4]","activity change, negative = inhibition [5]"
COc1ccc2cc3c(NC(=O)c4ccco4)nn(C)c3nc2c1,-17.9%,14.9%,-11.1%,-16.1%,-8.18%
Cc1ccc(CCNC(=O)c2cc3n(n2)CC(C)(C(=O)NCc2ccc(C)cc2)N(C)C3=O)cc1 (stereo not drawn),0.668%,2.77%,-2.72%,0.097%,-0.965%
CCC(C)C(=O)OC12C(OC(C)=O)C(C)C3(O)C(C=C(CO)CC4(O)C(=O)C(C)=CC43)C1C2(C)C (stereo not drawn),-0.066%,-8.9%,-1.5%,-20.7%,-1.08%
CC(C)c1noc([C@@H]2Cc3nc[nH]c3CN2C(=O)CC(C)(C)CC(=O)O)n1,-2.31%,0.441%,0.501%,-3.18%,-3.62%
CCCn1c(=O)c2ccc(C(=O)NC(C)C)cc2n2c(=O)n(Cc3ccccc3Cl)nc12,2.04%,0%,5.18%,-5.71%,2.8%
CC(=O)N1CCc2sc(C(=O)NC3CCN(Cc4ccccc4)CC3)cc2C1,-5.13%,-5.15%,-24.6%,-11.2%,10.3%
CC(C)N1Cc2cc(C(=O)NC3CCN(Cc4ccccc4)CC3)sc2C1,-13.1%,-8.78%,-21.4%,-14.9%,-11.1%
CN(CCCNC(=O)Cn1ccc2cc(S(=O)(=O)N3CCCCC3)ccc21)C1CCCCC1,-3.27%,-1.65%,-33.7%,-7.92%,-4.37%
CC1(C(=O)NCc2ccccc2Cl)Cn2cnc(C(=O)NCCCc3ccccc3)c2C(=O)N1C1CC1 (stereo not drawn),-5.12%,0.265%,1.39%,-3.66%,0.924%
CCCn1c(=O)c2ccc(C(=O)NCC(C)C)cc2n2c(=O)n(CC(=O)Nc3ccc(F)cc3)nc12,4.26%,0%,4.98%,6.25%,5.37%
CC(C)(C)OC(=O)N1CC(NCc2cccc(F)c2F)C1,-4.46%,-4.54%,-0.612%,-13.3%,-11%
COc1ccc(-c2ccc3c(N4CCOCC4C)nc(N4CCOCC4C)nc3n2)cc1CO (stereo not drawn),-5.66%,4.29%,4.57%,-35.2%,-25.1%
CC(C)C(=O)OC[C@H]1O[C@H](O[C@H]2O[C@H](CO)[C@@H](O)[C@H](O)[C@H]2O)[C@H](O)[C@@H](O)[C@@H]1O,1.27%,1.96%,9.55%,-13.1%,-7.69%
COc1ccc(-c2nnc3n(CCc4ccccc4)c(=O)c4ccccc4n23)cc1OC,-5.8%,4.02%,-6.5%,-0.154%,-4.16%
CCOc1ccc(C2c3cccn3-c3sc4c(c3CN2C(=O)Nc2cc(F)ccc2F)CCCC4)cc1 (stereo not drawn),-0.652%,1.05%,4.21%,2.89%,5.9%
CCOCCCN1C(=O)c2cc3ccccc3n2CC1(C)C(=O)NC1CCCC1 (stereo not drawn),8.79%,1.85%,7.89%,11.7%,3.91%
CC(C)C1c2cccn2CCN1C(=O)Nc1ccccc1Cl (stereo not drawn),-2.03%,0.643%,-9.15%,-7.81%,-5.99%
Cc1cc(C(C)Nc2ccccc2)c2nc(N3CCOCC3)cc(=O)n2c1 (stereo not drawn),-1.04%,-3.14%,4.18%,-24.5%,-10.1%
COC1OC(OC)C(O)(CCC2(C)C(C)CCC3(C)C2CC(O)C(O)C32CO2)C1O (stereo not drawn),2.7%,7.84%,4.01%,-6.46%,6.6%
CCOC(=O)c1cc2n(n1)CC(C)(C(=O)NCc1ccccc1)N(Cc1ccccc1)C2=O (stereo not drawn),1.12%,0%,9.23%,12.9%,2.37%
Clc1ccc2nsnc2c1NC1=NCCN1,-11.5%,1.39%,2.34%,-7.09%,-1.2%

SMILES,"activity change, negative = inhibition [1]","activity change, negative = inhibition [2]","activity change, negative = inhibition [3]","activity change, negative = inhibition [4]","activity change, negative = inhibition [5]"
CN(C)c1nccnc1OC1CCN(S(=O)(=O)c2ccccc2)C1 (stereo not drawn),-1.92%,-7.14%,-0.067%,-2.44%,0.951%
CCN1CCC2(CCC1=O)CN(c1ncnc3c1CCC3)CCN2C (stereo not drawn),-2.58%,-2.05%,-0.333%,0.347%,-9.23%
O=C(CCc1nc2ccccc2s1)NC1CCc2n[nH]c(=O)n2CC1 (stereo not drawn),-3.93%,-0.463%,1.38%,-3.96%,4.81%
CC(C)CNC(=O)c1ccc2c(=O)n(Cc3ccccc3)c3nn(Cc4ccccc4F)c(=O)n3c2c1,-0.28%,6.18%,2.74%,0.138%,0.792%
C=C1CC(=O)C2OC2(C)CC2OC(=O)C(=C)C2C(O)C1OC(=O)/C(C)=C\C (stereo not drawn),-0.319%,-22.2%,0.336%,-31.8%,-3.34%
COc1cccc(CN2C(=O)c3nc4ccccc4n3CC2(C)C(=O)NC2CCCCCC2)c1OC (stereo not drawn),-2.24%,5.3%,2.46%,-5.62%,-2.73%
CC(C)CCn1c(=O)c2ccccc2n2c(CCC(=O)NCc3ccc(F)cc3)nnc12,-4.51%,1.56%,-3.46%,9.09%,-4.71%
CN1C(=O)C(c2ccccc2)CC12CCN(c1ccnc(N)n1)CC2 (stereo not drawn),3.27%,1.24%,-50.4%,-0.656%,2.18%
COc1ccccc1CNC(=O)C1c2c(n(C)c3ccccc23)SCC(=O)N1c1cccc(SC)c1 (stereo not drawn),9.51%,0.276%,3.54%,-1.18%,3.1%
CC1(C(=O)NC2CCCCCC2)Cn2c(cc3sccc32)C(=O)N1CCCN1CCOCC1 (stereo not drawn),2.19%,1.37%,3.3%,7.33%,2.21%
C[S+](=O)([O-])N1CC2(Cc3ccccc3N(C(=O)Cc3ccc(F)cc3)C2)C1,-6.17%,-7.99%,-4.44%,-11.1%,-8.46%
Cc1ccc(CN2C(=O)CSc3c(c4ccccc4n3C)C2C(=O)NCCC(C)C)cc1 (stereo not drawn),4.48%,0%,-1.16%,-3.04%,3.65%
CCC(C)NC(=O)c1cccc(-c2ccc(OC)nn2)c1 (stereo not drawn),-8.96%,-6.13%,-4.14%,-14.3%,-10.8%
CC(C)c1c2cc(-c3ccnc(NC4CCC(NC5CCOCC5)CC4)n3)ccc2nn1C (stereo not drawn),-40.7%,-12.3%,-57.4%,-23.2%,-25.1%
COc1cccc(CNC(=O)N[C@@H]2CN(c3ncccn3)C[C@H]2CN(C)C)c1,-5.21%,-8.79%,-2.93%,-11.9%,-7.67%
CCOC(=O)c1cc2n(n1)CC(C)(C(=O)NCc1ccccc1)N(CCc1ccc(SC)cc1)C2=O (stereo not drawn),1.73%,3.84%,10.9%,3.37%,3.12%
CC(C)CCNC(=O)CCc1nnc2n(Cc3ccc(Cl)cc3)c(=O)c3ccccc3n12,-4.2%,3.14%,-0.254%,1.43%,-3.84%
CCCCOc1ccc(C(=O)Nc2ccc(F)cc2F)cc1,5.53%,-2.56%,4.39%,-15.1%,-7.95%
Nc1nc(OCc2cc(Br)cs2)c2[nH]cnc2n1,-3.55%,-4.11%,8.16%,-18%,1.76%
